Data: US20260137822A1 (ABDERA THERAPEUTICS, published 2026)

T1: human DLL3 on cells (HEK293T cells expressing human DLL3; SHP-77 cells) (human, UniProt Q9NYJ7 27-618)
T1 sequence (looked up): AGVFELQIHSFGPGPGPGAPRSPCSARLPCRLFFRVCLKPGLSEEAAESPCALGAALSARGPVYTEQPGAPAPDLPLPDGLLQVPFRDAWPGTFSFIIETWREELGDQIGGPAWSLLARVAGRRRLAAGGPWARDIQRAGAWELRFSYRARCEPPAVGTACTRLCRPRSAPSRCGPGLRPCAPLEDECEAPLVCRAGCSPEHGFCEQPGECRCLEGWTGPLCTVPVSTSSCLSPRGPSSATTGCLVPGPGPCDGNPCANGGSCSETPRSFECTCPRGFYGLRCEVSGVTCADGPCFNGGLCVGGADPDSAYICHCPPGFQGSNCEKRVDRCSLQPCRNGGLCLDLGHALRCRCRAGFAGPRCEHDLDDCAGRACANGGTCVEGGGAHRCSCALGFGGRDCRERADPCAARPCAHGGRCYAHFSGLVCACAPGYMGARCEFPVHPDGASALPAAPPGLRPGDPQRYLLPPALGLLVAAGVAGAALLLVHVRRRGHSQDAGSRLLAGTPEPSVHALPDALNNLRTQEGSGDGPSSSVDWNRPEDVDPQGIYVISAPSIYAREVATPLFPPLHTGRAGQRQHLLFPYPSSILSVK

T2: human DLL3 (recombinant antigen) (human, UniProt Q9NYJ7 27-492, limits assumed)
T2 construct: also called hDLL3
T2 sequence (looked up): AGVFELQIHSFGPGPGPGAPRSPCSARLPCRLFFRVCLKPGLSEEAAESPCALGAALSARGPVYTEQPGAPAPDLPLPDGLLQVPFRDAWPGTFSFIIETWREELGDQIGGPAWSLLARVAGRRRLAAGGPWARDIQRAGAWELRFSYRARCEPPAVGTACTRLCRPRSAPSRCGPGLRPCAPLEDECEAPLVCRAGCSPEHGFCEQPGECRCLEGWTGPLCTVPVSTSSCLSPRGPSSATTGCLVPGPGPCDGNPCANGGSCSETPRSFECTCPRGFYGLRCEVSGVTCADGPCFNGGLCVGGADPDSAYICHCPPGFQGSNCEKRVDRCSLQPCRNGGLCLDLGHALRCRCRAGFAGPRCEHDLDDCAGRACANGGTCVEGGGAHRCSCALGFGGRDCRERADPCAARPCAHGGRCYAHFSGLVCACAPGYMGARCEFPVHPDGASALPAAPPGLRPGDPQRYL

T3: mouse DLL3 (mouse, UniProt O88516 25-477, limits assumed)
T3 construct: recombinant antigen on optically encoded beads; also called mDLL3
T3 sequence (looked up): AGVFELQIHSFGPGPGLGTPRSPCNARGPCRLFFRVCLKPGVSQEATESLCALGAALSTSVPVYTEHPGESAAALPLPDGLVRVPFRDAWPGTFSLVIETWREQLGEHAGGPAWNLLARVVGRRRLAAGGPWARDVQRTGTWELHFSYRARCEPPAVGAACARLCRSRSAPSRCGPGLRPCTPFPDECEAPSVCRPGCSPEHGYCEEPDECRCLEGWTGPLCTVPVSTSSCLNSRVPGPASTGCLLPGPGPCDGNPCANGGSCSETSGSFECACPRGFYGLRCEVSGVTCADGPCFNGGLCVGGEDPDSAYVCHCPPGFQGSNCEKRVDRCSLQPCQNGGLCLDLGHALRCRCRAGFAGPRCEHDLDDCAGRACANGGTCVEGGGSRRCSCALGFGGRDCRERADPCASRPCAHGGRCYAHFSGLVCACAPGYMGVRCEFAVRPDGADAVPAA

B1: Clone 24 VHH-Fc (wildtype Fc/modified hinge) (Fc fusion)
chain: QVQYVESGGGLVQPGGSLRLSCAASGFTFSSYRINWYRQPPGKGRELVGSITDTGSTNYADSVKGRFTISRDNAKNTVYLQMSSLKPEDTAVYYCRAPTIAAYWGQGTQVTVSS[letters of human IgG1 Fc with C220S (EU numbers) omitted]
notes: also called 24-H
B2: Clone 100 VHH-Fc (wildtype Fc/modified hinge) (Fc fusion)
chain: QVQLVESGGGSVQPGGSLRLSCAASGIVFNSDVMGWYRQVPGKPRELVATITGGGSTNYATSVKGRFTISRDNAKNTVYLQMNSLRPEDTAVYYCNGRRGDSMLAFWAQGTQVTVSS[letters of human IgG1 Fc with C220S (EU numbers) omitted]
notes: also called 100-H
B3: Clone 107 VHH-Fc (wildtype Fc/modified hinge) (Fc fusion)
chain: QVQLVESGGGLVQAGDSLRLSCVASDRTFSSYAVGWFRQAPGKEREFVAAISWNGGRTLYTDSVTGRFTISRDNAKSTVYLQMNGLKPEDTAVYYCAARPAAPTRRLEYDYWGQGTQVTVSS[letters of human IgG1 Fc with C220S (EU numbers) omitted]
B4: Clone 126 VHH-Fc (wildtype Fc/modified hinge) (Fc fusion)
chain: QVQLVESGGGMVQPGGSLRLSCAASGITFSMYSMSWYRQPPGKQRELVAATTTFGSTNYADSVKGRFTISRDNAKNTVYLQMNSLKPEDTAVYLCNARFTSEEYWGQGTQVTVSS[letters of human IgG1 Fc with C220S (EU numbers) omitted]
B5: Clone 186 VHH-Fc (wildtype Fc/modified hinge) (Fc fusion)
chain: QVQVVESGGGLVQPGGSLTLSCAASGFDFSTYTVNWYRQAPGKEREKVARISSTGTTTNYANSAKGRFTLSRDNAKNRVYLQMNNLKPEDTAVYFCNFERFDSNYWGQGTQVTVSS[letters of human IgG1 Fc with C220S (EU numbers) omitted]
notes: also called 186-H
B6: Anti-FOLR1x4 GGGGSx3 (monospecific tetravalent VHH-VHH-Fc) (antibody)
chain: QVQLVESGGGLVQPGGSLRLSCAASGFTVSNSVMAWYRQTPGNEREFVAIINSIGITNYADSVKGRFTISRDNSKNTLYLQMNSLRAEDTAVYVCNRNFDRIYWGQGTLVTVSSGGGGSGGGGSGGGGSQVQLVESGGGLVQPGGSLRLSCAASGFTVSNSVMAWYRQTPGNEREFVAIINSIGITNYADSVKGRFTISRDNSKNTLYLQMNSLRAEDTAVYVCNRNFDRIYWGQGTLVTVSS[letters of human IgG1 Fc with C220S (EU numbers) omitted]
B7: Anti-FOLR1x4 GGSx4 (monospecific tetravalent VHH-VHH-Fc) (antibody)
chain: QVQLVESGGGLVQPGGSLRLSCAASGFTVSNSVMAWYRQTPGNEREFVAIINSIGITNYADSVKGRFTISRDNSKNTLYLQMNSLRAEDTAVYVCNRNFDRIYWGQGTLVTVSSGGSGGSGGSGGSQVQLVESGGGLVQPGGSLRLSCAASGFTVSNSVMAWYRQTPGNEREFVAIINSIGITNYADSVKGRFTISRDNSKNTLYLQMNSLRAEDTAVYVCNRNFDRIYWGQGTLVTVSS[letters of human IgG1 Fc with C220S (EU numbers) omitted]
B8: Anti-FOLR1x4 GGSx3 (monospecific tetravalent VHH-VHH-Fc) (antibody)
chain: QVQLVESGGGLVQPGGSLRLSCAASGFTVSNSVMAWYRQTPGNEREFVAIINSIGITNYADSVKGRFTISRDNSKNTLYLQMNSLRAEDTAVYVCNRNFDRIYWGQGTLVTVSSGGSGGSGGSQVQLVESGGGLVQPGGSLRLSCAASGFTVSNSVMAWYRQTPGNEREFVAIINSIGITNYADSVKGRFTISRDNSKNTLYLQMNSLRAEDTAVYVCNRNFDRIYWGQGTLVTVSS[letters of human IgG1 Fc with C220S (EU numbers) omitted]
B9: Clone ID 126 VHH-Fc (Fc fusion)
chain: B4 chain
notes: camelid VHH on human IgG1 Fc (VHH-Fc)
B10: Clone ID 186 VHH-Fc (Fc fusion)
chain: B5 chain
notes: camelid VHH on human IgG1 Fc (VHH-Fc); also called 186-H

Key:
[1] = molecular target: T1, human DLL3 on cells (HEK293T cells …); experiment: cell-based or functional assay
[2] = molecular target: T1, human DLL3 on cells (HEK293T cells …); experiment: flow cytometry on SHP-77 cells (endogenous DLL3), WT-Fc format
[3] = molecular target: T2, human DLL3 (recombinant antigen); experiment: SPR (Carterra LSA), VHH-Fc captured on anti-human Fc, hDLL3 as analyte, 1:1 fit
[4] = molecular target: T4, mouse FOLR1 (recombinant antigen) (mouse, UniProt P35846 25-232, limits assumed); experiment: ELISA on mFOLR1
T4 construct: also called mFOLR1

[5] = molecular target: T4, mouse FOLR1 (recombinant antigen); experiment: BLI (Octet), construct captured on AHC biosensor, mFOLR1 as analyte
T4 sequence (P35846 25-232 limits assumed): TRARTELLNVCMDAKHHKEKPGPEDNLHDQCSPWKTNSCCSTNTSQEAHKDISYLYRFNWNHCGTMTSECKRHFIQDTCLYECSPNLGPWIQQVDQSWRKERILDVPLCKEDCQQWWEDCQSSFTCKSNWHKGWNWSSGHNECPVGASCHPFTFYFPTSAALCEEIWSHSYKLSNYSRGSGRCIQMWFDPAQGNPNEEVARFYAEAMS

[6] = molecular target: T3, mouse DLL3; experiment: initial screening, bead-based binding assay (flow cytometry)

Row | Binder | HEK-DLL3 Internalization FOI [1] | EC50 [2] | Kd [3] | koff [3] | kon [3] | EC50 [4] | Kd [5] | koff [5] | kon [5] | binding result [6]
1 | B1 | 6.67 fold over negative control | 1.99 nM | 7.83 nM | 0.00133 s⁻¹ | 169000 M⁻¹ s⁻¹ |  |  |  |  | 
2 | B2 | 8.78 fold over negative control | 2.59 nM | 1.67 nM | 0.00027 s⁻¹ | 162000 M⁻¹ s⁻¹ |  |  |  |  | 
3 | B3 | 8.14 fold over negative control |  | 4.83 nM | 0.000442 s⁻¹ | 91500 M⁻¹ s⁻¹ |  |  |  |  | 
4 | B4 | 7.56 fold over negative control | 1.07 nM | 0.42 nM | 0.000221 s⁻¹ | 523000 M⁻¹ s⁻¹ |  |  |  |  | 
5 | B5 | 7.72 fold over negative control | 0.475 nM | 1.27 nM | 0.000379 s⁻¹ | 300000 M⁻¹ s⁻¹ |  |  |  |  | 
6 | B6 |  |  |  |  |  | 0.08 nM | 6.59 nM | 0.00311 s⁻¹ | 471000 M⁻¹ s⁻¹ | 
7 | B7 |  |  |  |  |  | 0.11 nM | 6 nM | 0.00261 s⁻¹ | 435000 M⁻¹ s⁻¹ | 
8 | B8 |  |  |  |  |  | 0.09 nM | 5.28 nM | 0.00268 s⁻¹ | 508000 M⁻¹ s⁻¹ | 
9 | B9 |  |  |  |  |  |  |  |  |  | no binding
10 | B10 |  |  |  |  |  |  |  |  |  | no binding
